Molecules are shown by their SMILES. Values joined by “and” are separate entries in the source; they are usually repeats but may differ in a detail not shown here. Equal entries are not always repeated. Some of the results follow. Further columns of the screen follow, without active or inactive calls. Compounds called inactive in the main read-out are mostly missing here.

This assay can be described thus: qHTS Assay for Lipid Storage Modulators (AID 1519). Conditions: Drosophila S3 cells, BODIPY lipid droplet/cell ratio, laser cytometry; measured here: lipid channel max response; cells loaded with oleic acid. The procedure, abridged: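 Cells seeded at 5,000 per well were treated with compounds over a concentration series and loaded with oleic acid (400 uM, as added). Lipid droplet fluorescence (488 nm excitation, 500-530 nm channel) was read by laser-scanning cytometry and normalized to 20 uM Triacsin C.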
(In general: In qHTS, concentration-response curves come from the screen itself.)
In the case of `NCCCP(=O)(O)CC1CCCCC1`, the max response is 49.5%.
Take `CN(C)Cc1c[nH]c2ccccc12`: the max response is 89.2%.
Turning to `O=C(CCCN1CCC2(CC1)C(=O)N(Cc1cccc(F)c1)CN2c1ccccc1)c1ccc(F)cc1`, the max response was -54.9%.
Regarding `O=CN1CCCCC1C1CC[C@H]2CCCCN2C1` (some centres undefined), the max response was determined as 61.7%.
To `CN1C[C@H](C(=O)N[C@]2(C)O[C@@]3(O)[C@H]4CCCN4C(=O)[C@H](Cc4ccccc4)N3C2=O)C[C@H]2c3cccc4[nH]cc(c34)C[C@@H]21` belongs 57.2%; to `C=CCN1CCC23c4c5ccc(O)c4O[C@H]2C(=O)CC[C@@]3(O)C1C5` (some centres undefined), 47.3%.
In the case of `Cc1nnc2ccc(-c3cccc(C(F)(F)F)c3)nn12`, the max response was 156%.
Take `CN(C(=O)Cc1ccc(Cl)c(Cl)c1)[C@H](CN1CCCC1)c1cccc(N=C=S)c1`: the max response amounted to 113%.
For `CCCN1CCO[C@@H]2c3cc(O)ccc3OC[C@@H]21` the value was -36.4%; for `O=C(NC[C@H]1CCCCN1)c1cc(OCC(F)(F)F)ccc1OCC(F)(F)F`, 73.6%; for `C[C@H](Cc1ccc2c(c1)OC(C(=O)O)(C(=O)O)O2)NC[C@H](O)c1cccc(Cl)c1`, 66.4%.
For `NC[C@H](CP(=O)(O)O)c1ccc(Cl)cc1`, the max response came to 38.6%.
For `CC1=CC(=O)c2c(O)cccc2C1=O` the value was -97.7% and -60.5%; for `CC1(C)N(O)C(c2ccc(C(=O)O)cc2)=[N+]([O-])C1(C)C`, 43.5%; for `Cc1c(C(=O)c2ccc3ccccc3c2)c2cccc3c2n1[C@H](CN1CCOCC1)CO3`, 102%.
To `CC1=NCCc2c1[nH]c1cc(O)ccc21` belongs 117%; to `Clc1ccc(N2CC3CCC(C2)N3)nn1`, 67.8%.
To `CC(=O)C1=C(O)[C@@H]2[C@@H]3c4c[nH]c5cccc(c45)C[C@@H]3C(C)(C)N2C1=O` belongs 87.9%; to `c1cc2c(cc1[C@H]1OC[C@@H]3[C@H]1CO[C@H]3c1ccc3c(c1)OCO3)OCO2`, 162%; to `COc1ccc2[nH]cc(CCN(C)C)c2c1`, -1.31%.
As for `CCCCCCC(C)(C)c1ccc([C@@H]2C[C@H](O)CC[C@@H]2CCCO)c(O)c1`, the max response stood at 58.8%.
For `COc1ccc2c(c1OC)C(=O)O[C@@H]2C1c2cc3c(cc2CCN1C)OCO3` (some centres undefined), the max response is 131%.
Consider `CCC1/C=C/C=CCC(C)C(O)[C@@](C)(O)C(=O)C(C)C(O)C(C)C(=O)C(C)C(O)C(C)C=CC(=O)O[C@H]2C(C)C(CC1)O[C@]1(CCC(C)C(CC(C)O)O1)C2C` (some centres undefined), for which the max response is -102%.
For `Cc1ccc(C(=O)c2ccc(CC(=O)O)n2C)cc1`, the max response came out at 51.2%.
`C=CCc1cc(OC)c2c(c1OC)OCO2`: the max response amounted to 49%.
With `CN1CCN(C(=O)O[C@@H]2c3nccnc3C(=O)N2c2ccc(Cl)cn2)CC1`, the max response turned out to be 37.1%.
`c1ccc2nc(C3=NCCN3)cnc2c1`: the max response is 137%.
On to `COc1ccc(CCN)cc1O`, for which the max response is -20.3%.
For `CC(CCC(=O)O)C1CCC2C3C(=O)C[C@@H]4CC(=O)CC[C@@]4(C)C3CC(=O)[C@]12C` (some centres undefined) the value was 13.3%; for `COc1cc([C@@H]2c3cc4c(cc3[C@H](O)[C@H]3COC(=O)[C@H]23)OCO4)cc(OC)c1OC`, 118%.
In the case of `COc1cc2c(cc1O)CC1c3c(cc(O)c(OC)c3-2)CCN1C` (centres undefined), the max response amounted to 123%.
Consider `CCC1C(=O)OCC1Cc1cncn1C` (centres undefined), for which the max response was 83.8% and 66.7%.
Regarding `COc1cc2ccc(=O)oc2c2ccoc12`, the max response was 56.6%.
For `CCCCCC1C(=O)O[C@H](C)[C@@H](NC(=O)c2cccc(NC=O)c2O)C(=O)OC(C)C1OC(=O)CC(C)C` (some centres undefined) the value was -106%; for `Clc1ccc(COC(Cn2ccnc2)c2ccc(Cl)cc2Cl)c(Cl)c1` (centres undefined), -42.9%; for `C[C@@H]1O[C@H](C[N+](C)(C)C)CS1`, 47.4%.
To `CC(=O)Oc1c2c(c(CC=C(C)C)c3c1C(=O)C1=CC4CC5C(C)(C)OC(C/C=C(\C)C(=O)O)(C4=O)[C@]15O3)OC(C)(CCC=C(C)C)C=C2` (some centres undefined) belongs -112%; to `C=C1CCC(O)C/C1=C\C=C1/CCCC2(C)C1CCC2C(C)CCCC(C)C` (centres undefined), 90.6%; to `C[C@H]1O[C@@H](O[C@H]2[C@@H](O)C[C@H](O[C@H]3[C@@H](O)C[C@H](O[C@H]4CC[C@]5(C)C6CC[C@]7(C)[C@@H](C8=CC(=O)OC8)CC[C@]7(O)C6CC[C@@H]5C4)O[C@@H]3C)O[C@@H]2C)C[C@H](O)[C@@H]1O` (some centres undefined), 38.4%.

For the origin of these results see PubChem BioAssay (NCATS).
